The source of these data is the supplement of paper PMC11417369.

The other results are listed elsewhere or left out.

The experiment concerns PF3D7_0420300 AP2 domain 1 (GST-tagged). Briefly: gcPBM binding intensity (ln(normalized median fluorescence intensity)); higher = stronger DNA binding. The gist of the method:
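GST-tagged P. falciparum DNA-binding domains, expressed in E. coli (about 25 μg on average), were applied for 1 h to an Agilent 4 × 180k array of primer-extended double-stranded 36-bp intergenic genomic probes plus negative controls. The binding buffer was 1× PBS with 1% milk, 0.2 mg/ml BSA, 0.5% salmon testes DNA and 0.03% Triton X-100. Bound protein was detected with Alexa488 anti-GST antibody and scanned at 488 nm. Binding intensity is the highest Masliner-normalised natural-log median intensity across replicate spots of either probe orientation.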
For “AAAAAAAACGGACACACACACATTCAATATAAAACA [CACACA_site4189]”, the “gcPBM binding intensity (ln)” value is 10.2. Next, “GTATTAATATATAATTGTACTTTTTTTTTTTTTTTT [XGTACX_site4369]”: 9.2; “ATCACCAAATGGGCTATACAACAATGAGAAATGGTA [CACACA_negctrl_site48]”: 9.22; “TTTTTATATTTTACATGTACATAAATATATTATATA [XGTACX_site958]”: 9.28. Next, “AATAATGAATTGAAATGTACATATTTTTATTAATAC [XGTACX_site8899]”: 9.13. For “ATACGAAGAAATGTTCATTTATTTCGAACATTTAAT [CACACA_negctrl_site1481]”, the “gcPBM binding intensity (ln)” value is 9. To “TTTTTCATAAAACACACACACAAAAATAATGTGGAA [CACACA_site3687]” belongs 9.8. Turning to “AATATAATATAATATAGTACGTAAAAATATTATACA [XGTACX_site2170]”, the “gcPBM binding intensity (ln)” value stood at 9.47. In the case of “TCCACTTAACTCAATTGTACAAAAATAAAAATTAAA [XGTACX_site855]”, the “gcPBM binding intensity (ln)” value came out at 8.85. Next, TTTTATGCGCAATAAGTGCATTTAAAATATATATAT: 8.97; “ATAATATATATATATATATTATCAAATATATATATA [GTGCAC_negctrl_site346]”: 8.96; “TGTGTATATCGATAAAGTACATTTGAAAAGTGACTT [XGTACX_site6957]”: 9.21.

Regarding “GTAATATGTATCCATACACACATACAGTTTATTTGC [CACACA_site6540]”, the “gcPBM binding intensity (ln)” value stood at 9.59. For the sequence “AAATTATATATGATGTGTACATAAATATATACACAT [XGTACX_site8761]”, the “gcPBM binding intensity (ln)” value worked out at 9.3. “ATGTATTTATTTTAACGTACAAGATATTATTATTAT [XGTACX_site4609]”: the “gcPBM binding intensity (ln)” value was 9.3.

With “AAATTATAATATAATACACACATAAAAAAAAAAAAA [CACACA_site7]”, the “gcPBM binding intensity (ln)” value turned out to be 9.47. Next, “ATATGGCATATTTGTATTATACATACATATGTATCT [TGCATGCA_negctrl_site562]”: 9.5; “TATATTTAGAGAGAGACACACAAAGGGACTTACACA [CACACA_site2545]”: 9.65; “TTATTATTCAAGAGGAGTACATTATGTGTATAATAT [XGTACX_site4995]”: 9.2. To “CTAATTGTGTATACCTGTACATATATATATATATAT [XGTACX_site416]” belongs 9.34; to “AATACAAAAAAAGGTACACACATAATATATTTATTA [CACACA_site2628]”, 9.84; to “TTAACTTTTTTATATGCACACATAAACAAGGATATA [CACACA_site8932]”, 9.21. Turning to “TGTTATTCTACATATACACACAAATAACAATTTAAA [CACACA_site1824]”, the “gcPBM binding intensity (ln)” value is 9.36.

On to “AAAAAAAAAAAGAACACACACAGTGCACATTCGGTG [CACACA_site788]”, for which the “gcPBM binding intensity (ln)” value is 9.7. Next, TTTCCCTCAAATAAAGTGCATTATGATTTTAATTTA: 9.08; “TTATTATTTGGTTATAGTACATAATATAATATATAT [XGTACX_site6911]”: 9.15; “TATATATATATGTATGCATGTTGTTTTTTATTTAAT [TGCATGCA_site343]”: 9.57.

“CTATATTTCGTTGGACGTACAAATGTGATAATTAGG [XGTACX_site3232]”: the “gcPBM binding intensity (ln)” value is 9.09. Next, “TTTCTTTTTTCACGTGCATGCCATTTAAGTATTAAT [TGCATGCA_site651]”: 9.55; “GAATTATAAGAATAAACACACAAGCTTAAAAAAAAA [CACACA_site1204]”: 9.45.

Turning to “AGAATTCAACAATGTTGTACATACACACACACAAAA [XGTACX_site5035]”, the “gcPBM binding intensity (ln)” value was found to be 9.97. Next, “TTTGTTTGGTTTTGGTGTACTTTTTTTTTTTTTTCT [XGTACX_site2050]”: 9.71; “ACATATGTATAATATGCACACGTCATTTTCCCCTTA [CACACA_site5194]”: 9.47. Next, “ACTAAACTTATATGTACACACATATAACATTAATTT [CACACA_site2258]”: 9.59; TAATTCTTGTAAAATGTGCGCAGTAGATATAGTTTT: 9.27. To “AGATATAAGAAAAGCACACACACACTAGAAAAAAAA [CACACA_site5559]” belongs 10.2; to “ATAAAATTATATACGTGTACATATATATATTTATGT [XGTACX_site4653]”, 9.19. Regarding “ATATTTATTCAATCCAGTACATATTATATATTGTAT [XGTACX_site184]”, the “gcPBM binding intensity (ln)” value stood at 9.33. In the case of “TAATAAATAGGACACACACACATATTTATATATCAT [CACACA_site6771]”, the “gcPBM binding intensity (ln)” value came out at 9.99. To “CCTTTAAGCAAAAACACACACACATATTTATTTATA [CACACA_site6294]” belongs 9.9. As for “AATTTTTTTTTTTTGTTGCACTTTTAGAGTTTTAAT [GTGCAC_site9519]”, the “gcPBM binding intensity (ln)” value came to 9.21. Next, “TATAAAAGTGGACACACACACATATATATATATATA [CACACA_site4673]”: 9.65; “ACACATCAAATATAAAAAAAAAATAACTATAAATAA [CACACA_negctrl_site587]”: 9.36; “TTGCAAAATTGTTTTATCACAAATATATACTTAATA [CACACA_negctrl_site403]”: 9.01. To “TAATTATTTTCGGTACGTACTAATGTATATATAATT [XGTACX_site3895]” belongs 9.2.
